# ± gives the standard deviation of the averaged measurements. The list shows a part of the results.
# Tested on: PfAP2-LT AP2 domain (GST-tagged)
# Assay: gcPBM binding intensity (ln(normalized median fluorescence intensity)); higher = stronger DNA binding
# Summary of the method: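 DNA-binding domains from P. falciparum, fused to GST and produced in E. coli, were put on an Agilent 4 × 180k double-stranded probe array for 1 h in 1× PBS holding 1% milk, 0.2 mg/ml BSA, 0.5% salmon testes DNA and 0.03% Triton X-100. Probes were primer-extended, 36 bp long and drawn from intergenic genomic regions, with negative controls included. After Alexa488 anti-GST antibody detection and a 488 nm scan, binding intensity was set as the highest Masliner-normalised natural-log median intensity across replicate spots of either probe orientation.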
row,Sequence,gcPBM binding intensity (ln)
1,TGAGAAAAAAAGAATTGTACATATAAAATATAACAA [XGTACX_site3500],8.59 ± 0.44
2,TTATCACATTATTGCACACACATAAAGAAAAAAATA [CACACA_site2841],9.26 ± 0.35
3,AAAGATACTTTCCTCAAACACACAAAACTATACAAC [CACACA_site1475],9.04 ± 0.36
4,ATATAAGAACAAAATTGTACATAAATATTTATATAA [XGTACX_site7404],8.74 ± 0.49
5,ATAAATCAAAGGCACACACACAAAAAAAAAAAAAAA [CACACA_site160],9.62 ± 0.49
6,TGTTTTTTATATTACTGTACATGTTTTGGAATAATA [XGTACX_site4716],8.75 ± 0.4
7,AGTTTTATGTAGTGTTGTACTTTATACAAATATATT [XGTACX_site614],8.94 ± 0.41
8,GCGGGTTTATCTTTCGCACACCTTACATTTTAGAAT [CACACA_site2015],9.02 ± 0.42
9,ATATCACATTCCACGGTACACACTAAAAGAAAAATC [CACACA_site3611],9.06 ± 0.45
10,AACAAAAATAGAAACACACATACATTGGTTTTCTTT [CACACA_site2534],8.88 ± 0.42
11,TATTTTTGTATATATTTATTCTTATTTTACAGGAAA [TGCATGCA_negctrl_site472],8.44 ± 0.55
12,ACATTTAAGTTTAGCTGTACATATTCATCATAATTA [XGTACX_site37],8.79 ± 0.32
13,GTATCATTAAATTATTGTACATATATATATATATAT [XGTACX_site8809],9.315 ± 0.064
14,TATTCCTTCTACAATTAAATAATTATAATAAATATA [GTGCAC_negctrl_site26],8.1 ± 0.41
15,AAAAAAAAATAATATTGTACACACATAAATTCTTTG [XGTACX_site4315],8.82 ± 0.49
16,TTAATTAATAGACACACACACATATAAATATAGATT [CACACA_site7143],9.6 ± 0.3
17,GTTTTATTAAAAATGTGTACTTAATTATGAAAAAAA [XGTACX_site4689],8.21 ± 0.47
18,GTGTATTTTCTGCGCACACACATGCAAAAAGAAATA [CACACA_site1148],9.35 ± 0.42
19,TTTTTTATTGTGATACGTATATTATTTTTTGATAAA [CACACA_negctrl_site1],8.51 ± 0.42

row,Sequence,gcPBM binding intensity (ln)
1,TATATTTACATTGTAACACACATGAAATATATATAT [CACACA_site61],8.74 ± 0.4
2,TGTTGTAAATATGTTTGTACATAAATATATTATTTA [XGTACX_site5442],8.45 ± 0.43
3,TATTGTTTTGATTGATGTACATGTTTAAAATATATA [XGTACX_site8430],8.76 ± 0.36
4,AAAGTAAATTTAAGCACACACAACGAACTTTTATAC [CACACA_site7008],9.37 ± 0.32
5,TAATCTATTTATATGTGTACCTATTTAGAAATGACA [XGTACX_site5709],8.5 ± 0.45
6,AAGAAAAAATATAATAATAATAAAATATATATAATA [TGCATGCA_negctrl_site475],8.59 ± 0.64
7,TTTGTTTTTCATAGTGCACACATAACCAAAAATAGT [CACACA_site9030],8.91 ± 0.32
8,ATATATATATATATATGTACATATTATATATGAACG [XGTACX_site1585],9.27 ± 0.52
9,ATATATTTTTTTTCTTCACACACATGAATTATATAT [CACACA_site9053],9.39 ± 0.4
10,AATAATAGAAAAAGGTGTACTTATAAACATATACAC [XGTACX_site6921],8.82 ± 0.49
11,GTAATTATTATTAATAGTACACACTATGGCATTTCA [XGTACX_site5192],8.85 ± 0.31
12,TATATTAATAGACACACACACATATTTATATTTATA [CACACA_site6859],9.55 ± 0.28
13,TACTGTGATAGCACCACACACGCAAAAGTGAGTATA [CACACA_site1109],9.01 ± 0.35
14,TATATTTAGTAAAAAGGTACCATTCTTATTTATATT [CACACA_negctrl_site1165],8.51 ± 0.49
15,TTTCAGCCAAACGATAAACTACGACACTTGAACGAA [CACACA_negctrl_site1747],8.71 ± 0.33
16,TAAGGCCCTTTTCATCGTACAGTAAAATATAAATAA [XGTACX_site1278],8.37 ± 0.39
17,CATACTGTGATAGCACCACACACGCAAAAGAGGGTA [CACACA_site8285],9.19 ± 0.42
18,CAAATACATGTGTAAAGTACATATTAATAAGTCTTT [XGTACX_site6342],8.96 ± 0.32
19,AATTTAACCCATTTTATAATTATTACCACTATATAT [TGCATGCA_negctrl_site452],8.83 ± 0.44

row,Sequence,gcPBM binding intensity (ln)
1,GAAAATTCTTAAGGCACACACATATATAATATATAC [CACACA_site569],9.19 ± 0.35
2,ATTTTTTTTTTTATGTGTACATATATTTTTTTAATT [XGTACX_site7921],9 ± 0.54
3,ATTTAATTTATAAAAACACACACAGGTAAAAAGGTG [CACACA_site8306],9.28 ± 0.36
4,AAGAAAAAATAAACATGTACATAAATATATATATAT [XGTACX_site304],9.2 ± 0.43
5,TGCTACTTATAAATAGAACACACATAAGTGTATTTG [CACACA_site9253],8.79 ± 0.44
6,AAGAAAAAAAAAAAAAAAAAAAAAAAAAAGGAAAAA [GTGCAC_negctrl_site174],8.37 ± 0.54
7,AAAAAAAAAAAAAAAAAAAAAAAAAAATATATATAT [CACACA_negctrl_site271],8.74 ± 0.28
8,TAAGAAAAAAAATAATGTACATATGTATTTGAGAAA [XGTACX_site3569],8.64 ± 0.5
9,TATATATATATATATTGTACTAATTGTGCAAATGAG [XGTACX_site682],9.06 ± 0.28
10,ATAAAGCCATACAATACACACATTTGACATGTCCGT [CACACA_site7523],9.21 ± 0.33
11,GAAATTTTTAAATACAGTACACACATGGGTTTAAAT [XGTACX_site6124],8.88 ± 0.37
12,ATACTTCAATCTATTTGTACATATTTTTTAAAACCA [XGTACX_site2328],8.72 ± 0.51
13,AATAATAAAAAATATACACACATATATAAATAAATA [CACACA_site6164],9.07 ± 0.4
14,ATTTAATACATACATTCACACACACTAATTGTATAT [CACACA_site9361],9.48 ± 0.26
15,AAAAAAAAAAAAACTTGTACATGTGATATTATCTAT [XGTACX_site6169],8.7 ± 0.45
16,TCAAAGTAGGCTTATATGCACACTTTGAAATATTAT [CACACA_site1920],8.7 ± 0.41
17,TTAAATGTTCTATATACATGCAATGATATGTTTCTG [TGCATGCA_site317],8.7 ± 0.39
18,TAGTTAATATGAAAAAGTACACGTTTCAGTGAAAGT [XGTACX_site7402],8.86 ± 0.46

# Reference: the supplement of paper PMC11417369
